The entries are a selection whose mix differs from that of the whole data set. The list includes weakly bound sequences.

For one experiment, the target named is T1, GST-Ap-NF-kB RHD (UniProt A0A913YAJ5).
T1 sequence: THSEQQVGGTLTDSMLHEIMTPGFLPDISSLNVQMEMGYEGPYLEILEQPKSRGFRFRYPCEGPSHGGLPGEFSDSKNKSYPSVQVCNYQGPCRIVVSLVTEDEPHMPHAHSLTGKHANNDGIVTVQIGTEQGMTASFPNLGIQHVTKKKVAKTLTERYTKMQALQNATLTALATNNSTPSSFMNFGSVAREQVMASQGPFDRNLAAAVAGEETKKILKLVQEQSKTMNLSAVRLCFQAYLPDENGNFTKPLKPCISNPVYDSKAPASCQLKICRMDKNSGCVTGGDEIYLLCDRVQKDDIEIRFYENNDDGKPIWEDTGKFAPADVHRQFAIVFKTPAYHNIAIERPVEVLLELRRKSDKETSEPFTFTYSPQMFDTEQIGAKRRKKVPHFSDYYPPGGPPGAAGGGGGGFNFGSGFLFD
The experiment is described as follows: protein-binding microarray (PBM). To be noted: PBM: ~300 nM protein, 6 mM HEPES pH 7.8, 80 mM KCl, 0.5 mM EDTA, 0.5 mM EGTA, 6% glycerol, 35 ng/ul poly-dIdC, 1% milk, 1 h, room temperature; high values mean tight binding; double strand, one strand shown.
For the sequence “CCGATTAACATCAAGAAATTTCCTGATGTTAATCGGGTCTTGATTCGCTTGACGCTGCTG”, the binding signal came to 0.386 z-score.

As for “CCGATTAACATCAAAAGTTCCCCTGATGTTAATCGGGTCTTGATTCGCTTGACGCTGCTG”, the binding signal was found to be 8.35 z-score.

As to “CCGATTAACATCAGGAAATTCCATGATGTTAATCGGGTCTTGATTCGCTTGACGCTGCTG”, the binding signal turned out to be 0.273 z-score.

The target of another experiment is T2, GST-Co-NF-kB (UniProt F1ARL5).
T2 sequence: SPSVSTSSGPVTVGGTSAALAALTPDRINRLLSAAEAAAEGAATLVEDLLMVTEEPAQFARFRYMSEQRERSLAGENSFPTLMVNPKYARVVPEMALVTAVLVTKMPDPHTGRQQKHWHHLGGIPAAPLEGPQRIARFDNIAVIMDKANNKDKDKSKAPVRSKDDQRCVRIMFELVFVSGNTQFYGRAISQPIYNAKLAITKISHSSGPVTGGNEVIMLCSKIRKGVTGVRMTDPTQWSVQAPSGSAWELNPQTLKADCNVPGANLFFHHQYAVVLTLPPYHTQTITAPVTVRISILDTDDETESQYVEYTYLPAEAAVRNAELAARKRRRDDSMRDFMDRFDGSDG
The experiment is described as follows: protein-binding microarray (PBM). The following applies: PBM: ~300 nM protein, 6 mM HEPES pH 7.8, 80 mM KCl, 0.5 mM EDTA, 0.5 mM EGTA, 6% glycerol, 35 ng/ul poly-dIdC, 1% milk, 1 h, room temperature; Ap Aiptasia and Nv Nematostella (sea anemones) / Co Capsaspora / Aq Amphimedon (sponge) / Dm Drosophila / Hu human; RHD is the Rel homology domain; high values mean tight binding; most listed sequences are background and not binding sites; double strand, one strand shown.
The sequence “CCGATTAACATCAGGAATATACCTGATGTTAATCGGGTCTTGATTCGCTTGACGCTGCTG” showed a binding signal of -0.25 z-score.

On to “CCGATTAACATCAGGGAGTTCACTGATGTTAATCGGGTCTTGATTCGCTTGACGCTGCTG”, for which the binding signal came out at 0.866 z-score.

Sequence “CCGATTAACATCAGGGGGTACACTGATGTTAATCGGGTCTTGATTCGCTTGACGCTGCTG” gave a binding signal of 4.33 z-score.

Sequence “CCGATTAACATCAGAAATCCCGATGATGTTAATCGGGTCTTGATTCGCTTGACGCTGCTG” returned a binding signal of 0.936 z-score.

“CCGATTAACATCAGAAAATACCATGATGTTAATCGGGTCTTGATTCGCTTGACGCTGCTG”: the binding signal amounted to 0.38 z-score.

Take “CCGATTAACATCAGAGGATTCCCTGATGTTAATCGGGTCTTGATTCGCTTGACGCTGCTG”: the binding signal worked out at 2.44 z-score.

For the sequence “CCGATTAACATCACGGAATTACCTGATGTTAATCGGGTCTTGATTCGCTTGACGCTGCTG”, the binding signal is 0.161 z-score.

“CCGATTAACATCATTTCCCAAAATGATGTTAATCGGGTCTTGATTCGCTTGACGCTGCTG”: the binding signal is 1.54 z-score.

“CCGATTAACATCAGGGGGGGAAATGATGTTAATCGGGTCTTGATTCGCTTGACGCTGCTG” had a binding signal of 10.2 z-score.

The sequence “CCGATTAACATCAGGGAAAATACTGATGTTAATCGGGTCTTGATTCGCTTGACGCTGCTG” yielded a binding signal of 4.49 z-score.

For “CCGATTAACATCACGGGATTACCTGATGTTAATCGGGTCTTGATTCGCTTGACGCTGCTG”, the binding signal is 0.793 z-score.

As for “CCGATTAACATCACGGGTATTCCTGATGTTAATCGGGTCTTGATTCGCTTGACGCTGCTG”, the binding signal turned out to be 1.3 z-score.

“CCGATTAACATCAGACATTCCCCTGATGTTAATCGGGTCTTGATTCGCTTGACGCTGCTG” had a binding signal of 5.38 z-score.

As for “CCGATTAACATCAAAAAAGACCCTGATGTTAATCGGGTCTTGATTCGCTTGACGCTGCTG”, the binding signal is -0.0672 z-score.

Regarding “CCGATTAACATCACCGTCCCCCCTGATGTTAATCGGGTCTTGATTCGCTTGACGCTGCTG”, the binding signal amounted to 5.1 z-score.

The sequence “CCGATTAACATCACCCATGGGAATGATGTTAATCGGGTCTTGATTCGCTTGACGCTGCTG” displayed a binding signal of 2.05 z-score.

The sequence “CCGATTAACATCACGGTTATTCCTGATGTTAATCGGGTCTTGATTCGCTTGACGCTGCTG” displayed a binding signal of 0.264 z-score.

Regarding “CCGATTAACATCAGGGAATGCCCTGATGTTAATCGGGTCTTGATTCGCTTGACGCTGCTG”, the binding signal was found to be 1.43 z-score.

Consider “CCGATTAACATCAGGCAACCCCCTGATGTTAATCGGGTCTTGATTCGCTTGACGCTGCTG”, for which the binding signal is 2.03 z-score.

In turn, “CCGATTAACATCAGGGGGATTAATGATGTTAATCGGGTCTTGATTCGCTTGACGCTGCTG” showed a binding signal of 6.77 z-score.

“CCGATTAACATCAGAAACCCCCCTGATGTTAATCGGGTCTTGATTCGCTTGACGCTGCTG” gave a binding signal of 3.94 z-score.

“CCGATTAACATCAGAAAATGCCCTGATGTTAATCGGGTCTTGATTCGCTTGACGCTGCTG” came in with a binding signal of 0.802 z-score.

Consider “CCGATTAACATCACCGGAAATTCTGATGTTAATCGGGTCTTGATTCGCTTGACGCTGCTG”, for which the binding signal amounted to 0.234 z-score.

“CCGATTAACATCAGCAATTCCCCTGATGTTAATCGGGTCTTGATTCGCTTGACGCTGCTG” returned a binding signal of 5.7 z-score.

As to “CCGATTAACATCAGGGAATGTACTGATGTTAATCGGGTCTTGATTCGCTTGACGCTGCTG”, the binding signal was determined as 2.29 z-score.

“CCGATTAACATCAGGGACATCCCTGATGTTAATCGGGTCTTGATTCGCTTGACGCTGCTG” came in with a binding signal of 0.84 z-score.

In the case of “CCGATTAACATCACATGTGGGAATGATGTTAATCGGGTCTTGATTCGCTTGACGCTGCTG”, the binding signal was determined as 2.62 z-score.

Consider “CCGATTAACATCAGGAGAGCCCCTGATGTTAATCGGGTCTTGATTCGCTTGACGCTGCTG”, for which the binding signal came out at 0.578 z-score.

Consider “CCGATTAACATCACGGAGTTCCCTGATGTTAATCGGGTCTTGATTCGCTTGACGCTGCTG”, for which the binding signal worked out at 1.53 z-score.

“CCGATTAACATCAAATAGTCCCCTGATGTTAATCGGGTCTTGATTCGCTTGACGCTGCTG” registered a binding signal of 4.46 z-score.

“CCGATTAACATCAATATCCCCCCTGATGTTAATCGGGTCTTGATTCGCTTGACGCTGCTG” came in with a binding signal of 8.06 z-score.

As to “CCGATTAACATCAGGGAGGTACCTGATGTTAATCGGGTCTTGATTCGCTTGACGCTGCTG”, the binding signal is 0.824 z-score.

“CCGATTAACATCACAAAAGTCCCTGATGTTAATCGGGTCTTGATTCGCTTGACGCTGCTG”: the binding signal came to 2.27 z-score.

As to “CCGATTAACATCAAACCCCCCCGTGATGTTAATCGGGTCTTGATTCGCTTGACGCTGCTG”, the binding signal amounted to 5.57 z-score.

In turn, “CCGATTAACATCAGGGGGGACCCTGATGTTAATCGGGTCTTGATTCGCTTGACGCTGCTG” gave a binding signal of 4.11 z-score.

For the sequence “CCGATTAACATCAGGGCAGTACCTGATGTTAATCGGGTCTTGATTCGCTTGACGCTGCTG”, the binding signal was -0.383 z-score.

Take “CCGATTAACATCAGGGAAATCACTGATGTTAATCGGGTCTTGATTCGCTTGACGCTGCTG”: the binding signal came out at 2.62 z-score.

“CCGATTAACATCAAGAAATTTCCTGATGTTAATCGGGTCTTGATTCGCTTGACGCTGCTG” had a binding signal of 0.522 z-score.

“CCGATTAACATCAAAAGTTCCCCTGATGTTAATCGGGTCTTGATTCGCTTGACGCTGCTG” yielded a binding signal of 9.64 z-score.

In turn, “CCGATTAACATCAGGAAATTCCATGATGTTAATCGGGTCTTGATTCGCTTGACGCTGCTG” had a binding signal of -0.127 z-score.

Source of the values: paper PMC5700166.
